Results taken from PubChem BioAssay AID488969 (Vanderbilt High Throughput Screening Facility, 2010).
Whole data set: some 110,000 compounds, median “z-score” near -0.1, cut for the highest 2% near 2. This is one part of the list.

Target: Metabotropic glutamate receptor 8 (Rattus norvegicus) (UniProt P70579)
Experiment: rat mGluR8 modulators via GIRK flux, primary screen, cell-based, thallium flux, HTS (AID 488969)
Settings: HEK293 rat mGluR8, GIRK (G protein-gated inwardly rectifying potassium channel) thallium flux, FluoZin2; at 10 µM; stronger effect = higher value; submaximal glutamate (EC20) added with thallium

UniProt P70579, sequence (P70579 whole entry, looked up): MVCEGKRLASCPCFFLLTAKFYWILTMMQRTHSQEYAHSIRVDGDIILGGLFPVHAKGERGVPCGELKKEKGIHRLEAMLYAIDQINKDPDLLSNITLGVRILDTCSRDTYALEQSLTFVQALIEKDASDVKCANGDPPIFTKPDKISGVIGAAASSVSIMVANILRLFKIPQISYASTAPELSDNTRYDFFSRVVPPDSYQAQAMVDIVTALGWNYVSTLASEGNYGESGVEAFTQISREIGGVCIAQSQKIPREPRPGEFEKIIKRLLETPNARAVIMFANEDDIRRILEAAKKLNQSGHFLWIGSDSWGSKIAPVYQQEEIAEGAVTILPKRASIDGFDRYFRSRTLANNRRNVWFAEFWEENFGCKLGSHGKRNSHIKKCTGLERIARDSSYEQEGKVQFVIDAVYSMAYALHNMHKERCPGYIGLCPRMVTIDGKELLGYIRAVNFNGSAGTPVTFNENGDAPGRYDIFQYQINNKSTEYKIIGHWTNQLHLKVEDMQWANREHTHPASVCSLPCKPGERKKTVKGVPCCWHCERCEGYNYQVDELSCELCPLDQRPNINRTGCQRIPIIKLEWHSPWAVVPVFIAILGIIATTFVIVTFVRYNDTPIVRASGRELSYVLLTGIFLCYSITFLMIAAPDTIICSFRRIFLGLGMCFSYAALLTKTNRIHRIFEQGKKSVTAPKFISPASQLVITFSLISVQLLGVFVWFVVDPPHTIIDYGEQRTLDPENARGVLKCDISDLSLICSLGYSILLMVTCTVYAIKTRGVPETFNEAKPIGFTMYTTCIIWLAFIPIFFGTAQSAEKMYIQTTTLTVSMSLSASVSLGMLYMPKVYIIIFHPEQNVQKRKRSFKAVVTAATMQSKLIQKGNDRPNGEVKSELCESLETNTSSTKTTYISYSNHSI

| Structure (SMILES) | z-score |
| --- | --- |
| COc1ccc(Cl)cc1Nc1nc(-c2sc(NC(=O)c3ccco3)nc2C)cs1 | -0.591 |
| O=C(c1cccs1)c1coc2ccc(O)c(CN3CCOCC3)c12 | 1.08 |
| COc1cc(C(=O)Nc2nc(-c3ccc(F)cc3)cs2)ccc1OCC(=O)N1CCOCC1 | 0.0184 |
| Cc1ccc(C(=O)CSc2ccc(-c3ccccc3)nn2)cc1 | -0.183 |
| O=P(O)(O)C(O)C(F)(F)C(F)(F)C(F)(F)C(F)F (stereo not drawn) | -0.236 |
| COC(=O)c1cc(NC(=O)N2c3ccccc3Sc3ccccc32)cc(C(=O)OC)c1 | -0.211 |
| CC12COC3(C(=O)Nc4ccc(F)cc4)CC1CCC32C (stereo not drawn) | -0.00125 |
| COc1ccc(C2c3c(oc4ccccc4c3=O)C(=O)N2Cc2ccncc2)cc1 (stereo not drawn) | 0.116 |
| COc1ccc(C(=O)C(CN2CCOCC2)c2ccccc2)cc1F (stereo not drawn) | 0.233 |
| O=C1c2ccccc2NC(c2c(Cl)cccc2Cl)N1Cc1ccccc1 (stereo not drawn) | -0.191 |
| CC(=O)Nc1cc(C(C)(C)C)c(O)c(C(C)(C)C)c1 | -0.502 |
| N#Cc1cc(Oc2cccnc2)c(Oc2cccnc2)cc1C#N | 0.18 |
| Cc1cccc(OCC(=O)Nc2sc3c(c2C#N)CCC3)c1 | -0.312 |
| CNC(=S)NCCc1ccc(OC)c(OC)c1 | 0.44 |
| CC(OC(=O)c1cccnc1)C(=O)NCc1ccc2c(c1)OCO2 (stereo not drawn) | -0.223 |
| Clc1ccc(Oc2nc3ccccc3n3cccc23)cc1 | -0.864 |
| CCOc1ccc(CCNC(=O)C2CCC(=O)N2C2CCCCC2)cc1OCC (stereo not drawn) | -0.58 |
| COc1ccc(NC(=O)CCN2CCCC(C)C2)cc1 (stereo not drawn) | 0.469 |
| CSc1ccccc1C(=O)Nc1cc(C)cc(C)c1 | -0.0645 |
| CCOC(=O)CNc1ncc([N+](=O)[O-])cc1C#N | 0.0842 |
| CCOC(=O)C(C)Sc1ncc(-c2ccc(Cl)cc2)cn1 (stereo not drawn) | -0.302 |
| COC(=O)C1=C(C)N(Cc2ccc(C)cc2)C(=O)C1 | -0.106 |
| CCc1cc2c(CN3CCN(C)CC3)cc(=O)oc2cc1O | 0.691 |
| CCC1=C(OC(=O)c2ccccc2)C(C)(C)C(c2ccccc2)OC1=O (stereo not drawn) | 0.065 |
| Cn1nc(CC(=O)Nc2ncc(Br)s2)c2ccccc2c1=O | -0.694 |

| Structure (SMILES) | z-score |
| --- | --- |
| COc1ccc(Cc2c(O)nc[nH]c2=O)cc1 | -0.109 |
| O=C(COc1ccc(Cl)cc1)NCCSCc1ccccc1Cl | -0.285 |
| Cc1nnc(SCC(=O)N/N=C/c2cn(-c3ccccc3)nc2-c2ccccc2)n1-c1ccccc1 | -0.297 |
| NC(=O)CSc1nc2sc(-c3ccccc3)cc2c(=O)n1N | -0.899 |
| CCCN=Cc1c(CCC)[nH]n(-c2nc3ccccc3s2)c1=O | -0.961 |
| COC(=O)c1c(NC(=O)CCC(=O)O)sc2c1CCCCC2 | -0.271 |
| CCOC(=O)c1ccc(Nc2c(CC)c(C)nc3ncnn23)cc1 | -0.346 |
| COc1ccc(S(=O)(=O)Cc2ccc(C(=O)N3CCN(c4ccccn4)CC3)o2)cc1 | -0.197 |
| CCOc1cc(NC(=O)c2ccccn2)c(OCC)cc1NC(=O)CC(C)C | -0.376 |
| CCOC(=O)C=C1CCN(c2ncc(C(F)(F)F)cc2Cl)CC1 | -0.0961 |
| COc1ccc(-c2ccc(-c3noc(-c4ccccc4C)n3)c(OC)n2)cc1 | 0.972 |
| CCCN1CCC2(CC1)C(C#N)=C(N)Oc1c2sc2nc(C)cc(C)c12 | 0.127 |
| COc1ccccc1N(CC(=O)N/N=C/c1ccc(OCC(=O)NCc2ccco2)cc1)S(=O)(=O)c1ccc(C)cc1 | -0.803 |
| CCOc1cc(C(=O)Nc2ccc3c(c2)OCO3)ccc1OCCOc1ccccc1Cl | -0.142 |
| Cn1c(=O)c2c(nc(N/N=C/c3ccc(OC(=O)c4ccco4)cc3)n2Cc2ccccc2Cl)n(C)c1=O | -0.5 |
| O=C(NCc1ccc2c(c1)OCO2)c1ccc2snnc2c1 | 0.056 |
| COc1ccc(-c2c(C#N)c(C)nc3c2C(=O)c2ccccc2-3)cc1 | -0.139 |
| O=C(Nc1ccccc1)c1cccnc1N1CCCC1 | 0.569 |
| COc1cccc(C(=O)NCCOc2cc(C)cc(C)c2)c1 | -0.17 |
| Cn1c(C(=O)N2CCC(C(N)=O)CC2)cc2c(=O)n(C)c3ccccc3c21 | -1.06 |
| CCCCCCNC(=O)Cc1c(O)c2ccccc2[nH]c1=O | 0.0939 |
| CC(C)CC(C(=O)NC(=O)NCc1ccccc1)N1C(=O)c2ccccc2C1=O (stereo not drawn) | 0.208 |
| O=C(NCC(F)(F)F)N1CCOCC1 | -0.169 |
| COc1ccccc1C(=O)Oc1ccc(C(C)(C)C)cc1 | 0.143 |
| N#Cc1ccc2ccn(CC(=O)NC3CCCCCC3)c2c1 | 0.0132 |

| Structure (SMILES) | z-score |
| --- | --- |
| O=C(c1ccco1)N(Cc1ccc([N+](=O)[O-])cc1)c1ccc(Cl)cc1 | -0.31 |
| COc1ccc(S(=O)(=O)NCc2ccccc2)cc1 | 0.172 |
| c1ccc(-c2n[nH]c(-c3ccccn3)n2)nc1 | 0.0205 |
| CCOc1ccc2nc(NC(=O)c3cnc(C)cn3)sc2c1 | -0.079 |
| CCOCCCNC(=O)c1ccc(NC(C)=O)cc1 | -0.0798 |
| Cc1ccc(C(=O)Nc2nc3nc(-c4ccccc4)cc(=O)n3[nH]2)cc1 | 0.248 |
| O=C(O)CCn1c2c(c3ccccc31)CCCC2 | -0.105 |
| CCN(CC)c1ccc(/C=N/N=C(c2ccccc2)c2ccccc2)c(O)c1 | -0.147 |
| CCc1ccccc1N1C(=O)C2CC=CCC2C1=O (stereo not drawn) | -0.529 |
| O=c1c2c3c(sc2ncn1/N=C/c1ccc([N+](=O)[O-])o1)CCCC3 | -0.182 |
| Cc1ccc(C)c(/C(O)=C2\C(=O)C(=O)N(CCCn3ccnc3)C2c2cccnc2)c1 (stereo not drawn) | 0.61 |
| O=C(c1cc(-c2ccc3c(c2)OCO3)on1)N1CCOCC1 | 0.561 |
| Clc1ccc(-c2cc3ccccc3[nH]2)cc1 | -0.274 |
| CCCS(=O)(=O)NCc1cn2cccc(C)c2n1 | -0.145 |
| CC(=C1C(=O)c2ccccc2C1=O)N1CCN(Cc2ccccc2)CC1 | -0.06 |
| O=C(Nc1cccc(F)c1)c1c(F)c(F)c(F)c(F)c1F | -0.552 |
| C=CCn1c(NCCO)nc2c1c(=O)n(C)c(=O)n2C | 0.247 |
| Cn1c(=O)c2c(nc(N3CCCCCC3)n2CCSc2nc3ccccc3o2)n(C)c1=O | -0.443 |
| Cc1onc(-c2ccccc2)c1C(=O)NC(=S)NNC(=O)c1cccnc1 | -0.0403 |
| Cc1cc(C)n(-c2nnc(SCC(=O)NC3CCCC3)c3ccccc23)n1 | -1.07 |
| CCc1c(C)nc(SC)n(CC#N)c1=O | -0.0371 |
| CC(=O)c1c(C)[nH]c(C(=O)NCc2ccccc2)c1C | 0.037 |
| CC1CC(C)CN(c2nc3c(c(=O)n(C)c(=O)n3C)n2CCSc2ncccn2)C1 (stereo not drawn) | 0.369 |
